Source: paper PMC3268813 (Scientific Reports, 2012)

B1: GFP-tagged full-length CRN2 S463D (natural protein)
chain: not shown
B2: GFP-tagged full-length CRN2 S463A (natural protein)
chain: not shown
B3: full-length human GST-His6-tagged CRN2 S463D purified from insect cells (natural protein)
chain: not shown

Target: the molecule itself
Assay: SEC

Stoichiometry N, 3:
B1
B2
B3
